Results from the supplement of paper PMC3334620.
In all, about 33,000 sequences were measured (“E-score (-0.5 to 0.5)”: median about -0.012, highest 2% from about 0.29 on). Some of the results follow.

molecular target: T1, Ybr033w (UniProt P38073); assay: PBM E-score (8-mer binding enrichment) (E-score (-0.5 to 0.5)); higher = stronger / more preferred TF binding; most listed sequences are background and not binding sites; details: protein concentration: 200 nM; construct: GST-full length
T1 sequence: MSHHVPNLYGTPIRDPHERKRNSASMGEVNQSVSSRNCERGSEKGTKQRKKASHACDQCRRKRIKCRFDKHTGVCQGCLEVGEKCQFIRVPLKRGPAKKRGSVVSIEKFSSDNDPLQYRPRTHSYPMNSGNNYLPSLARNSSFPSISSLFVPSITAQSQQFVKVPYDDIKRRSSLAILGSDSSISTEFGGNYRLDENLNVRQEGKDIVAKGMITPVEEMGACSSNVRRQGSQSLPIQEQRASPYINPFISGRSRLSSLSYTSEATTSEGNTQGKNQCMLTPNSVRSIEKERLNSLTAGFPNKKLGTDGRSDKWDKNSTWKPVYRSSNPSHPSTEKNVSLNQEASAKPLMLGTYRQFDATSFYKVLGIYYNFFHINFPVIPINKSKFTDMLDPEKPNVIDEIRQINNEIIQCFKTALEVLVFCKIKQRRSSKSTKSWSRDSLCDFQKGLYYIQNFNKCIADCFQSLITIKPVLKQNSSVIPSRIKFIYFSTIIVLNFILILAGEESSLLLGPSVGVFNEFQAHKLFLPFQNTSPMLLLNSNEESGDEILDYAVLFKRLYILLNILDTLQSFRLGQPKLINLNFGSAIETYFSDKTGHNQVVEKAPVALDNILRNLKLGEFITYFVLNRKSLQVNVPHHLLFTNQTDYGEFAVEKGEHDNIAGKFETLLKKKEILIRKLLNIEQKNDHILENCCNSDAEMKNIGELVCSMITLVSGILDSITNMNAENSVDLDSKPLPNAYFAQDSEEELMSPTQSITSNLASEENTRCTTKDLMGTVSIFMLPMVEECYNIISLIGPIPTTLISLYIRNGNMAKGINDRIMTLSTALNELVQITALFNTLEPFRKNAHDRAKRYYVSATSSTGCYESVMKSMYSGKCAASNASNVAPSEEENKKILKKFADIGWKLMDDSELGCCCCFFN
Procedure: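 Universal 'all 10-mer' protein binding microarrays (Agilent AMADID 015681) probed with GST-tagged S. cerevisiae TFs (full-length or DBD) made by in vitro transcription/translation (PURExpress), about 100-200 nM. Bound TF was detected with fluorescent anti-GST. Each ungapped 8-mer (which stands for itself and its reverse complement) is scored by the PBM enrichment score (E-score), a modified Wilcoxon-Mann-Whitney statistic from -0.5 to +0.5, computed with the Universal PBM Analysis Suite. Scale: above 0.35 generally sequence-specific binding.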

In order of rising “PBM E-score” value:
1. CCCGTGGC  -0.39
2. AGCCCGCG  -0.318
3. ACAGAGGC  -0.3
4. CCAGCCCA  -0.298
5. CCCGAGCA  -0.296
6. CGCTCTAG  -0.296
7. CTATCCCC  -0.291
8. AGGTTCCC  -0.29
9. GCCCGGGC  -0.27
10. CCCTTGGC  -0.27
11. GACATGGC  -0.267
12. CCTGAGGC  -0.259
13. GGCACTAC  -0.252
14. CCCGCAAG  -0.245
15. CCGCAGAC  -0.238
16. CCAAGGCG  -0.234
17. GGGACGCA  -0.233
18. GACCGGCA  -0.227
19. CGTGCTAC  -0.223
20. CCAGCTAA  -0.215
21. GACCCGGA  -0.212
22. CACACGGC  -0.209
23. ACCTTGCC  -0.208
24. AGGGCCGG  -0.208
25. GAGTCGCC  -0.207
26. ACACGCCC  -0.203
27. GCCTGCGA  -0.192
28. GCCAAGGA  -0.182
29. GTCTGGGA  -0.18
30. AGCGGTGC  -0.179
31. CGCGTTTC  -0.179
32. ACCTACAC  -0.177
33. AGAGCTAT  -0.174
34. ACGGAGAG  -0.17
35. AGCGGCAC  -0.17
36. GGTACTGA  -0.167
37. CATACCCG  -0.165
38. CTAGGCTA  -0.164
39. GATCGCCA  -0.154
40. AGGTGTAG  -0.144
41. AACTGGGC  -0.144
42. CAAAACGC  -0.142
43. GGCGTTGA  -0.139
44. CAGGACGA  -0.132
45. CACATGAC  -0.13
46. GCGGGAGA  -0.129
47. GTAATGCA  -0.128
48. ATGTGCGG  -0.125
49. AAAGCGTG  -0.124
50. ACACGGGT  -0.122
51. CATGCAGA  -0.12
52. GACACCGC  -0.118
53. GGGTAACC  -0.117
54. GACACCTC  -0.115
55. TCCTCACA  -0.105
56. GAGTCAAC  -0.105
57. AGGTCTCA  -0.102
58. ACCTGGTC  -0.0936
59. CGAGCGAC  -0.0906
60. ACGCCAAC  -0.0861
61. ACCTATGA  -0.0827
62. AAGAAGGA  -0.0821
63. TGAGTGCA  -0.077
64. CCAAGTGC  -0.0762
65. CAACACAG  -0.0762
66. ATTAAGGG  -0.0754
67. CGAACGGA  -0.0681
68. GGAAGTGA  -0.0675
69. CCTACTGC  -0.0675
70. CATCCCTA  -0.0662
71. CGCGGACA  -0.0655
72. ACCCGTCT  -0.0592
73. CGGACAAC  -0.0529
74. CATCCTAG  -0.0462
75. CCACACGC  -0.0385
76. CCAGAGTC  -0.0375
77. AAAAGCTG  -0.0352
78. AACGGGGA  -0.0326
79. AGGAAGAG  -0.0292
80. CCCTATCA  -0.0263
81. CTTCGACA  -0.0144
82. GCGCTAAA  -0.00863
83. GTCAGTAA  -0.00383
84. TCTCGCCA  -0.00247
85. AAATGTCA  0.00238
86. AAGCATCT  0.00442
87. GTAACGCA  0.00793
88. AGGGCGAA  0.00984
89. CAACCTAC  0.0113
90. CTGTTAGC  0.0123
91. AACGCGTA  0.0134
92. AGTAACCA  0.0148
93. CGCTTTAC  0.018
94. AACCACTC  0.0186
95. CGCACTAG  0.0213
96. GTGATGAA  0.0226
97. AATTGACC  0.0241
98. GTCTACAC  0.0244
99. GGGAAACA  0.0327
100. ACACCGCA  0.0328
101. CAATCACC  0.0353
102. GACCGGAA  0.036
103. TCCCAAGA  0.0369
104. CGCGCGCC  0.0396
105. ACTCCAGA  0.0397
106. ATGCGCAC  0.0412
107. AAGATGAC  0.0438
108. CGTGTTTA  0.0527
109. ATGTCTTA  0.055
110. CCGAACGA  0.0558
111. CACTCTTA  0.0582
112. GGCCGAGA  0.0662
113. ACGAGAAT  0.0681
114. CATCCATG  0.0683
115. TGTCGGAA  0.0696
116. GCGTGTCA  0.0699
117. AACATCCC  0.0746
118. AACACCCG  0.0827
119. GAGAGTGA  0.0923
120. GCAATTGA  0.0953
121. GTTACTGA  0.103
122. CGGTTGAG  0.108
123. CAAGTAAA  0.113
124. ACTAGTAG  0.113
125. TGCTGGAA  0.115
126. AAGTCGGT  0.117
127. AACTAACA  0.118
128. CGTTGTTC  0.119
129. ACACTCTA  0.121
130. AATTAGGA  0.126
131. ATAGTGAA  0.129
132. ATTCAGTA  0.13
133. CTGGTAGA  0.135
134. AGAACGAT  0.14
135. AGAACACG  0.142
136. AAGTAGGG  0.144
137. GGAATCAA  0.145
138. CAAACGAC  0.146
139. AAACTGCA  0.146
140. AATGTATG  0.15
141. TCATCCAA  0.16
142. GAGTACAA  0.162
143. AAAGATGA  0.167
144. CAGTATAG  0.168
145. CAGTATTA  0.168
146. ATAAGTAC  0.17
147. CTTGAAAC  0.181
148. AATAATGT  0.183
149. ACAAACAT  0.184
150. CGGAATAC  0.186
151. CGTTTTTC  0.187
152. ATCGTACA  0.188
153. ATTTTTTA  0.193
154. AAATAGAA  0.193
155. CGAGTAAA  0.196
156. AATCCAAA  0.201
157. AATCGTAT  0.203
158. AAGGATAT  0.205
159. ACCGGAAG  0.222
160. ACAATTGT  0.223
161. ACTATTCC  0.228
162. AATGAACT  0.232
163. GTTCGTTA  0.234
164. AGATTGAG  0.242
165. TACTAAAA  0.243
166. AATTTTTA  0.256
167. CGATTTAG  0.263
168. AACTTTTC  0.274
169. ACTAAATC  0.278
170. AATATCCG  0.284
171. GATATTAC  0.31
172. AAATATTC  0.37
